The source of these data is the RNAGym collection of RNA variant scans (doi:10.1093/nar/gkz1192).

The labels stand for the following.
B1: CPEB3 Ribozyme (parent)
chain: UAACAGGGGGCCACAGCAGAAGCGUUCACGUCGCAGCCCCUGUCAGAUUCUGGUGAAUCUGCGAAUUCUGCUGUAUAUCUC

Read counts are not given, so values of variants with three or more changes are uncertain.

Variants of B1 are the subject of this series. The series can be described thus: self-cleavage, relative activity (ratio to wild type); higher = more cleavage; in vitro, sequencing. Put shortly:
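For each CPEB3 ribozyme variant, relative activity is its cleaved/total read fraction divided by the unmutated ribozyme's. Barcoded error-prone PCR libraries were transcribed by T7 RNA polymerase (5 hours, 37°C) and held in DNase I for 15 min before an EDTA stop, with cleavage occurring throughout. Template-switching reverse transcription and Illumina sequencing were used to read the RNAs. A 5-read minimum applied, and results are the mean of three batches.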
Turning to U1C A3U A20U U49C A64G, the self-cleavage came to 0.11.

For U1C C62A U69C, the self-cleavage was found to be 0.35.

In the case of U1C A18U C40A U69G U72G, the self-cleavage was 0.05.

In the case of A2C A15U A18G A35U U41G U66A, the self-cleavage was 0.07.

As to U1A U67A A75C U80A, the self-cleavage was 0.46.

In the case of U1A G19U G30C G36A, the self-cleavage was found to be 0.06.

U1C G9U U26C G55U A64U: the self-cleavage was found to be 0.05.

Consider U1C A20U A47G A56G, for which the self-cleavage turned out to be 0.3.

For the variant U1C G24C A65G U66C U69C, the self-cleavage is 0.3.

As for U1C G7U U51G, the self-cleavage is 0.42.

Take U1C C27U U72C U74C U76A: the self-cleavage stood at 0.38.

As to A2C A15G U41A U43C A64G, the self-cleavage came to 0.1.

Regarding U1C A45G U66C U69C, the self-cleavage was found to be 0.16.

U1C G10A A13G U41C A56G C59U: the self-cleavage worked out at 0.23.

Consider U1C G9A U25A U54C, for which the self-cleavage is 0.

Regarding U1C A2G C12A A13G U69C, the self-cleavage stood at 0.2.

Take U1C U26C U43C U54A: the self-cleavage worked out at 1.

In the case of U1C A13G A20G U43A U66A, the self-cleavage is 0.18.

Regarding U1A G55A U66C, the self-cleavage is 0.25.

U1C U60C A64G: the self-cleavage amounted to 0.35.

For U1C A13G U41A U54C U58C, the self-cleavage was determined as 0.08.

For the variant U1C G19U U80A, the self-cleavage was 0.42.

In the case of U1C A15U C17U C34U A77G, the self-cleavage was 0.24.

Turning to U1C A35G U43C A56G G70U U80C, the self-cleavage worked out at 0.24.

In the case of U1A U26C A28C, the self-cleavage turned out to be 0.08.

As for U1C G8U A18G C50A U67C, the self-cleavage was 0.09.

In the case of U1C C17U U58C, the self-cleavage stood at 0.3.

Take U1C U41C U54A U58C U67C: the self-cleavage amounted to 0.24.

On to U1G A2G U41A, for which the self-cleavage was 0.67.

As for U1C A15G A21G U41A, the self-cleavage is 0.52.

With U1C A57G U66C, the self-cleavage was 0.22.

As to U1G U41C U76C, the self-cleavage was found to be 1.02.

As for U1C A15G U41C U43C, the self-cleavage was 0.43.

With U1C A2G U43A U49C A65G C71G, the self-cleavage is 0.13.

Consider U1C G7C U26A U54C U78A, for which the self-cleavage turned out to be 0.04.

In the case of U1C A5G G7A G22C U26C A56C A57G, the self-cleavage worked out at 0.05.

As for U1C A21C U72A, the self-cleavage worked out at 0.2.

Turning to U1G A18U A56G, the self-cleavage is 0.33.

Consider U1G U26A A35U C40U U72G, for which the self-cleavage worked out at 0.2.

As to U1C A3G U66A, the self-cleavage is 0.49.

Take U1C A15U U26A U31C A65G: the self-cleavage came to 0.25.

Take U1C A3U C27U: the self-cleavage stood at 0.08.

As to U1A C39U U76C, the self-cleavage stood at 0.82.

In the case of U1A C44U C62A, the self-cleavage came out at 0.19.

For U1C A13U G24C A45G A75G, the self-cleavage is 0.03.

On to U1C A2G U69C C81U, for which the self-cleavage was determined as 0.22.

Turning to U1C G6A A45G G73U U74A, the self-cleavage was determined as 0.58.

Consider U1C G7C A18U A28G G33U G53C G73U, for which the self-cleavage was determined as 0.03.

For U1G A20G U26C G42A, the self-cleavage was determined as 0.11.

Regarding U1C C17G U49C, the self-cleavage came out at 0.32.

For U1A U41G A57G A77G, the self-cleavage stood at 0.19.

Consider U1C A15G U41C U51A U67C U72C, for which the self-cleavage came out at 0.14.

Take U1C A15U A56G: the self-cleavage was determined as 0.35.

Turning to U1C A18U A45U U51C, the self-cleavage was 0.26.

Regarding U1C A20G U43C U60A A65G, the self-cleavage was found to be 0.05.

Consider U1C C29G U54C U60C, for which the self-cleavage was determined as 0.05.

U1C A5G G6U A20C U26C U80C: the self-cleavage was found to be 0.02.

U1C A5U A20G U26C G52U U58C: the self-cleavage came out at 0.5.

For U1C A18G U26C, the self-cleavage came to 0.59.

As for U1C A3G A13U C37A U58A U67C, the self-cleavage worked out at 0.07.

With U1C U31A U41C A56G C81U, the self-cleavage came to 0.32.

Turning to U1A G9U A21G U25C U26C U31A A45G, the self-cleavage stood at 0.57.

U1C U54C U80G: the self-cleavage came out at 0.64.

For the variant U1C A13C U31C G33A A45U U49C, the self-cleavage was found to be 0.08.

In the case of U1C A18G U26C A35G A64G U72C, the self-cleavage turned out to be 0.1.

For the variant U1C U25A U54C, the self-cleavage is 0.37.

With U1C A5U U31C A35C U41A U51A U54C, the self-cleavage came out at 0.29.

With U1A G9A G52A, the self-cleavage was found to be 0.08.

For U1C A13U U25A U66C, the self-cleavage was determined as 0.06.

Take U1C A5G U25C A35G U43C A47C: the self-cleavage was 0.56.

For the variant U1A U31C U72C U78C, the self-cleavage came out at 0.92.

Turning to U1A U25C U26C A35U U60C, the self-cleavage was determined as 0.13.

As for U1C A2G A15G C29A A57G C62A, the self-cleavage is 0.09.

Turning to U1C C27G A56U U58A, the self-cleavage came to 0.17.

Consider U1C A28U G53A, for which the self-cleavage amounted to 0.77.

On to U1C A5G A20G U66G U76C U80C, for which the self-cleavage amounted to 0.06.

With U1C A28G U31A C50U U80C, the self-cleavage is 0.07.

U1A C39U G53U A64U: the self-cleavage came out at 0.13.

On to U1C A18G U26C A28G U48C, for which the self-cleavage is 0.26.

As to U1C A35U U51C G70C, the self-cleavage amounted to 0.17.

U1G A5G A35G U80C: the self-cleavage was determined as 1.12.

For the variant U1C A15G U43A, the self-cleavage was 0.72.

Turning to U1C A2U C12U G19U U41C G46A U60A, the self-cleavage was 0.15.
